Measurements published in PMC4336329 (PLoS ONE, 2015).
Screen size: about 310,000 compounds; about 14,000 (4.5%) showed an effect of 50% or more. Effects have a minus sign here. This is one part of the list.

Target: human ether-à-go-go-related gene (hERG) potassium channel (human, UniProt Q12809)
Assay: primary screen, population patch clamp on CHO cells stably expressing hERG
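Further: peak tail current of the secondary pulse compared with the same well before compound.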

Sequence of human ether-à-go-go-related gene (hERG) potassium channel (Q12809 whole entry, looked up): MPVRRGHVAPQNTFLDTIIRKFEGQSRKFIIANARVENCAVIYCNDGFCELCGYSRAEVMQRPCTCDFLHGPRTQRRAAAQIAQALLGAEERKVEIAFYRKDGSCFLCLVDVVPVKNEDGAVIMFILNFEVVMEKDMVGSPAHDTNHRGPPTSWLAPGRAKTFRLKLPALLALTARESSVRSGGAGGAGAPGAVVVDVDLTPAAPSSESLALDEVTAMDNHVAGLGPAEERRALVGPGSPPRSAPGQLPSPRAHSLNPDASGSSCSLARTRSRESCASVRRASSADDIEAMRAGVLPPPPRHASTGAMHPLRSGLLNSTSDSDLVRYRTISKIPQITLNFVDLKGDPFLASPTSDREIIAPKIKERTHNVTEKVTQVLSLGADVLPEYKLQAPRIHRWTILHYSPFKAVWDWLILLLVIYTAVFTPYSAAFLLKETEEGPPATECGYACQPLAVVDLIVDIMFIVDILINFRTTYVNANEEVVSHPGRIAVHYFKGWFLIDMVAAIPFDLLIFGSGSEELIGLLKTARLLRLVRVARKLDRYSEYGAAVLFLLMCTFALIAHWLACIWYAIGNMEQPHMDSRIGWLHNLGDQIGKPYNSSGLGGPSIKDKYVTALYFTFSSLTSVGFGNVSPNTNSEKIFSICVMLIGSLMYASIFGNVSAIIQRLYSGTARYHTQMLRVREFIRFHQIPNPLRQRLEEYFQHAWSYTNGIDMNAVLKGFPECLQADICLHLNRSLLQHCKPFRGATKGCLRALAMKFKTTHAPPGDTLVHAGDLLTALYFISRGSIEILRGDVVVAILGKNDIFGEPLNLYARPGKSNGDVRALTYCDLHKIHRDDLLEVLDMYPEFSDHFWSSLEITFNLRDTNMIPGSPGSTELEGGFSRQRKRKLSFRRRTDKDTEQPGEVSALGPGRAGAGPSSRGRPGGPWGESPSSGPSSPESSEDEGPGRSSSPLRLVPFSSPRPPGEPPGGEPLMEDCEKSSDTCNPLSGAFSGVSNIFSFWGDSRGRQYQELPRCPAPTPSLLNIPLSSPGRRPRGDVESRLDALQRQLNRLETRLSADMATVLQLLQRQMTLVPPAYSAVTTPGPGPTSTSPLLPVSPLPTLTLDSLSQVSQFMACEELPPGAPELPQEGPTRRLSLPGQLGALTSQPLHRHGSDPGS

Compared with `COc1ccc(/C=C/C(=O)c2cccc(-n3cnnn3)c2)cc1O`, `CC(=O)Nc1ccc(S(=O)(=O)Nc2cccc(-n3cnnn3)c2)cc1` is higher in “hERG current change (%, negative = inhibition) at 10uM” value: 13.5% for the first, 21.5% for the second.

Compared with `Clc1cc(Cl)c2nc(N3CCCCC3)sc2c1`, `Nc1nc(SCC(=O)Nc2cccc(S(=O)(=O)N3CCCCCC3)c2)n[nH]1` is lower in “hERG current change (%, negative = inhibition) at 10uM” value: 8.96% for the first, -3.93% for the second.

Going from `CCn1c(SCC(=O)c2ccc(F)cc2)nnc1-c1ccoc1C` to `Nn1c(SCC(=O)Nc2ccccc2)nnc1-c1cccnc1`, the “hERG current change (%, negative = inhibition) at 10uM” value rises from -10.4% to -0.632%.

Going from `COc1nc(Nc2ccc(C(C)C)cc2)nc(OC)n1` to `COCCNc1nc(-c2cc(-c3ccc(Cl)cc3)on2)cc(C(C)C)n1`, the “hERG current change (%, negative = inhibition) at 10uM” value rises from -20% to 14.5%.

Going from `CCc1nc(SCC(=O)Nc2cc(OC)ccc2OC)c2c(C)c(C)sc2n1` to `CCOC(=O)c1sc2nc(CSc3ccccc3)nc(N3CCCN(C)CC3)c2c1C.O=C(O)C(=O)O`, the “hERG current change (%, negative = inhibition) at 10uM” value falls from 3.63% to -70%.

First: O=C(/C=C/c1ccccc1)NC1CCS(=O)(=O)C1 (centres unmarked)
Second: CN(C)S(=O)(=O)c1ccc(N2C(=O)CC2(/C=C/c2ccccc2)C(=O)NC2CCCC2)cc1 (centres unmarked)
The “hERG current change (%, negative = inhibition) at 10uM” value of the first is lower: 18.1% for the first, 19.8% for the second.

First: CCC(C)c1c(O)nc(SCC(=O)N2CCCCCC2)[nH]c1=O (centres unmarked)
Second: CCOC(=O)N1CCN(C(=O)CSc2nc3c([nH]c4ccccc43)c(=O)n2CCOC)CC1
The “hERG current change (%, negative = inhibition) at 10uM” value of the first is higher: 26.4% for the first, -65.1% for the second.

First: CC(=O)O[C@H](COc1c2ccoc2cc2oc(=O)ccc12)C(C)(C)O.O
Second: COc1ccc(-c2coc3cc4oc(=O)cc(C)c4cc23)cc1F
The “hERG current change (%, negative = inhibition) at 10uM” value of the first is lower: -6.92% for the first, 1.52% for the second.

Going from `Cc1ccsc1/C=N/NC(=O)CC(=O)NCC(C)C` to `CCNC(=S)N/N=C/c1cc(C)ccc1C`, the “hERG current change (%, negative = inhibition) at 10uM” value rises from 21.2% to 21.4%.

First: CCOC(=O)N1CCC(NC(=O)Cn2cc3c(n2)CCCCC3)CC1
Second: Cc1c(CCC(=O)N2CCC[C@H]2C(=O)O)c(=O)oc2c(C)c3oc4c(c3cc12)CCCC4
The “hERG current change (%, negative = inhibition) at 10uM” value of the first is lower: 9.89% for the first, 35.3% for the second.

Compared with `C/C(=N\NC(N)=S)c1ccncc1`, `CCN(CC)C(=O)CCSc1nnc(-c2ccncc2)o1` is lower in “hERG current change (%, negative = inhibition) at 10uM” value: 8.91% for the first, -2.01% for the second.

Compared with `Cc1nc2ccccc2c(=O)n1-c1ccc(Cl)cc1[N+](=O)[O-]`, `Cc1cc(C(=O)N/N=C/c2cccnc2)c2ccccc2n1` is lower in “hERG current change (%, negative = inhibition) at 10uM” value: 10.1% for the first, 5.99% for the second.

Compared with `CC(C)CCN1CCN(CCCn2cccn2)CC1CCO` (centres unmarked), `COc1ccc2[nH]c(CN3CCN(CCC(C)C)C(CCO)C3)c(C)c2c1` (centres unmarked) is higher in “hERG current change (%, negative = inhibition) at 10uM” value: -6.72% for the first, 23.5% for the second.

Going from `CCC(CC)C(=O)Nc1nnc(CCc2ccccc2)s1` to `CCc1nnc(NC(=O)c2n[nH]c(=O)c3ccccc23)s1`, the “hERG current change (%, negative = inhibition) at 10uM” value rises from -1.88% to 14.3%.

First: CNc1nnc(Sc2ncccc2[N+](=O)[O-])s1
Second: NC(=O)c1cc([N+](=O)[O-])ccc1NCc1ccc(O)cc1
The “hERG current change (%, negative = inhibition) at 10uM” value of the first is higher: 18.5% for the first, -19.9% for the second.

First: COc1ccc2nc3oc(C(=O)N4CCN(c5cccc(C(F)(F)F)c5)CC4)cc3cc2c1
Second: Cn1c(C(=O)N2CCN(c3ccccc3)CC2)cc2cc(Cl)ccc21
The “hERG current change (%, negative = inhibition) at 10uM” value of the first is lower: 12.5% for the first, 19.1% for the second.

First: O=C(NCc1cccnc1)/C(=C/c1ccc(Cl)cc1)NC(=O)c1ccccc1
Second: COc1cccc(CNC(=O)CC2C(=O)NCCN2CCCc2ccccc2)c1 (centres unmarked)
The “hERG current change (%, negative = inhibition) at 10uM” value of the first is lower: -68.5% for the first, -6.17% for the second.

First: COC(=O)C1=C(N)Oc2cc(C)[nH]c(=O)c2C1c1ccccc1OC (centres unmarked)
Second: Cc1cc2occ(CC(=O)N(C)CC(=O)Nc3ccccc3Br)c2cc1C
The “hERG current change (%, negative = inhibition) at 10uM” value of the first is lower: 9.48% for the first, 12.8% for the second.

Compared with `OC/C(Br)=C(\Br)CO`, `O=C(CSCc1ccccc1Br)N/N=C/c1ccc(OCC(=O)N2CCCCC2)cc1` is lower in “hERG current change (%, negative = inhibition) at 10uM” value: 12.1% for the first, -15.9% for the second.

First: COc1ccc(N2CCN(CCCNC(=O)C(=O)c3c(C)[nH]c4ccccc34)CC2)cc1
Second: CCCCCCN1CCN(c2ccc(Cl)cc2)CC1
The “hERG current change (%, negative = inhibition) at 10uM” value of the first is higher: -53.3% for the first, -66.9% for the second.

Compared with `COc1cccc(OC)c1C(=O)Nc1cccc(-c2ccc3nncn3n2)c1`, `CCn1c2ccccc2c2cc(NC(=O)C(C)Oc3ccc(OC)cc3)ccc21` (centres unmarked) is higher in “hERG current change (%, negative = inhibition) at 10uM” value: 5.17% for the first, 19.9% for the second.

Going from `CN(C)S(=O)(=O)c1ccc(N2CCCC2)c(C(=O)Nc2ccc(C(N)=O)cc2)c1` to `Cc1ccc(S(=O)(=O)N(C)C)cc1NC(=O)CN1CCN(Cc2ccccc2)CC1.Cl`, the “hERG current change (%, negative = inhibition) at 10uM” value rises from -30.9% to -24.8%.

First: O=C(Cn1ccc(C(F)(F)F)n1)N=Nc1c(O)[nH]c2ccccc12
Second: CN(C)C(=O)c1cccn(Cc2cccc(C(F)(F)F)c2)c1=O
The “hERG current change (%, negative = inhibition) at 10uM” value of the first is lower: 1.25% for the first, 6.99% for the second.

Compared with `CSCCC(NC(=O)c1ccccc1Cl)C(=O)N(C)CC(=O)Nc1ccc(N2CCOCC2)cc1` (centres unmarked), `C(=N\Nc1ccccc1)/c1ccc(N2CCOCC2)cc1` is lower in “hERG current change (%, negative = inhibition) at 10uM” value: 5.2% for the first, -0.949% for the second.

First: c1ccc(C(c2ccccc2)c2noc(CN3CCC(c4ccncc4)CC3)n2)cc1
Second: O=C1CC(=C(c2ccccc2)c2ccccc2)C(=O)N1CCCN1CCN(c2cccc(Cl)c2)CC1
The “hERG current change (%, negative = inhibition) at 10uM” value of the first is lower: -32.7% for the first, 1.35% for the second.

First: C=CCO/N=C(/C)c1c(O)c(CC)c(-c2ccccc2)n(-c2ccccc2)c1=O
Second: O=C(CSc1nc(-c2ccccc2)c(-c2ccccc2)[nH]1)NCCN1C(=O)CSC1=O
The “hERG current change (%, negative = inhibition) at 10uM” value of the first is higher: -8.37% for the first, -33.2% for the second.

Compared with `Cc1ccc(CNC(=O)C2CCN(C(=O)Nc3ccccc3)CC2)cc1`, `O=C(CN1CCCCC1)Nc1ccccc1-c1ccccc1` is higher in “hERG current change (%, negative = inhibition) at 10uM” value: -16.3% for the first, -9.07% for the second.

Going from `O=C(Nc1ccnn1C1CCN(Cc2ccc(CO)o2)CC1)c1ccc2c(c1)OCO2` to `O=C(NCc1ccc2c(c1)OCO2)c1ccc(Cl)c(S(=O)(=O)N2CCOCC2)c1`, the “hERG current change (%, negative = inhibition) at 10uM” value falls from 5.11% to -18.8%.

First: CC(=O)c1cccc(NC(=O)c2cc3ccccn3n2)c1
Second: CCC(=O)Nc1ccc2c(c1)ncn2-c1ccccc1
The “hERG current change (%, negative = inhibition) at 10uM” value of the first is lower: -14.6% for the first, 4.49% for the second.

Going from `CCOc1ccccc1NC(=O)CN(C)S(=O)(=O)c1ccc2[nH]c(=O)oc2c1` to `Cc1ccc(S(=O)(=O)NCC(=O)NCC(=O)NCCc2ccccc2F)cc1C`, the “hERG current change (%, negative = inhibition) at 10uM” value rises from -5.16% to -2.01%.

First: CC(=O)C1=C(O)C(=O)N(c2ccc(S(N)(=O)=O)cc2)C1c1ccc([N+](=O)[O-])cc1 (centres unmarked)
Second: Cc1ccc(SCCNC(=O)CN2C(=O)c3ccccc3S2(=O)=O)cc1
The “hERG current change (%, negative = inhibition) at 10uM” value of the first is higher: 7.52% for the first, -35.7% for the second.

Going from `COCCNc1ccnc2c(Cl)cccc12` to `COCCN(CCOC)c1ncnc2c1cnn2-c1ccc(Cl)cc1`, the “hERG current change (%, negative = inhibition) at 10uM” value rises from -81.9% to -27.7%.

Compared with `Cc1nn(CC(=O)NC2(C#N)CCCCC2)c(C)c1[N+](=O)[O-]`, `Cc1cc(C)c(S(=O)(=O)N2CCN(C(=O)N(C)C)CC2)c(C)c1` is higher in “hERG current change (%, negative = inhibition) at 10uM” value: 3.09% for the first, 7.06% for the second.

First: CC(=O)c1ccc(S(=O)(=O)N(Cc2cc3cc4c(cc3[nH]c2=O)OCCO4)CC2CCCO2)cc1 (centres unmarked)
Second: Cc1cc(C)c2[nH]c(=O)c(CN(Cc3ccc4c(c3)OCO4)Cc3nnnn3C3CCCC3)cc2c1
The “hERG current change (%, negative = inhibition) at 10uM” value of the first is higher: 8.84% for the first, -4.47% for the second.

Going from `COCCNC(=S)NC(=O)CC12CC3CC(CC(C3)C1)C2` to `O=C(O)C1CCCCC1C(=O)NC1C2CC3CC(C2)CC1C3` (centres unmarked), the “hERG current change (%, negative = inhibition) at 10uM” value rises from 2.18% to 22.1%.

First: CCN(C(=O)CSc1ncn[nH]1)c1c(N)n(Cc2ccccc2)c(=O)[nH]c1=O
Second: Cc1ccc(F)cc1NC(=O)C1CC(=O)N(CCc2ccccc2)C1 (centres unmarked)
The “hERG current change (%, negative = inhibition) at 10uM” value of the first is higher: 17.7% for the first, -8% for the second.

First: OC1CCCN(c2ncnc3c2nnn3Cc2c(F)cccc2Cl)C1 (centres unmarked)
Second: Cl.Fc1ccccc1/C=N/N1CCN(Cc2ccccc2Cl)CC1
The “hERG current change (%, negative = inhibition) at 10uM” value of the first is lower: 0.989% for the first, 21.3% for the second.

Going from `Cc1ccc(S(=O)(=O)N2CC(=O)Nc3ccccc32)c(C)c1NS(C)(=O)=O` to `COc1cccc(/C=C2/C(=O)NN(c3ccccc3)C2=O)c1`, the “hERG current change (%, negative = inhibition) at 10uM” value rises from 6.92% to 15.8%.

Compared with `O=C(O)COc1ccc(/C=C/c2nc(-c3ccccc3O)n[nH]2)cc1`, `COc1ccccc1NC(=S)N(Cc1ccccc1)Cc1cccs1` is lower in “hERG current change (%, negative = inhibition) at 10uM” value: 24.2% for the first, 14.9% for the second.

Going from `COc1cc2cc(C(=O)O)n(C)c2c(OC)c1OC` to `CCOP(=O)(OCC)C(O)c1cc(OC)c(OC)c(OC)c1` (centres unmarked), the “hERG current change (%, negative = inhibition) at 10uM” value falls from 9.35% to -0.612%.

First: CCc1ccc(N2C(=O)CC(N(CC3CCCO3)C(=O)/C=C/C(=O)O)C2=O)cc1 (centres unmarked)
Second: Cn1c(N)c(C(=O)COC(=O)CCCOc2ccc(Cl)cc2Cl)c(=O)n(C)c1=O
The “hERG current change (%, negative = inhibition) at 10uM” value of the first is higher: 24.2% for the first, -12.2% for the second.

First: CC1=NCCc2c1[nH]c1cc(O)ccc21.Cl.O
Second: Nc1nc2n(n1)C(c1ccco1)CC(c1ccc(Cl)cc1Cl)N2 (centres unmarked)
The “hERG current change (%, negative = inhibition) at 10uM” value of the first is higher: -9.58% for the first, -25% for the second.

First: Cc1cc(C(=O)N2CCN(c3ccccn3)CC2)no1
Second: Cc1cc(C)c(C#N)c(SCCS(=O)(=O)Cc2ccccc2)n1
The “hERG current change (%, negative = inhibition) at 10uM” value of the first is lower: -11.4% for the first, 15% for the second.

Compared with `CCCCn1c(=O)c(C=Nc2cc([N+](=O)[O-])ccc2OC)c(O)n(CCCCl)c1=O`, `CCOc1cc2[nH]c(=S)n(CCCN(CC)CC)c(=O)c2cc1OCC` is higher in “hERG current change (%, negative = inhibition) at 10uM” value: -34.9% for the first, -29.6% for the second.

With `Cn1cccc1C(C#N)c1cccc(F)c1C#N` (centres unmarked) the “hERG current change (%, negative = inhibition) at 10uM” value was 6.07%.
